From the supplement of paper PMC4604168 (melanoma cell lines)
The list shows a part of the results. Repeats are few or missing, and single values can be far off.

system: A2058; assay: cell count relative to DMSO control; melanoma cells; higher = more viable cells; conditions: library dose: low library concentration; 72 h
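Further: cell number obtained by counting DAPI-stained nuclei in high-throughput microscope images with image analysis software, screen run in 1,536-well plates.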

Compound | cell count
Nc1ccn([C@@H]2O[C@H](CO)[C@@H](O)C2(F)F)c(=O)n1 [gemcitabine] + O=c1cc(-c2cccc3c2Sc2ccccc2S3)oc(N2CCOCC2)c1 [KU55933] (first compound 0.0004 µM, partner dose 1 µM) | 106%
Nc1nc(F)nc2c1ncn2[C@@H]1O[C@H](CO)[C@@H](O)[C@@H]1O [fludarabine] + Oc1cc(-c2nc(-c3ccccc3)[nH]c2-c2ccncc2)ccc1Cl [L779450] (first compound 0.2 µM, partner dose 0.2 µM) | 90.6%
Nc1ccn([C@@H]2O[C@H](CO)[C@@H](O)C2(F)F)c(=O)n1 [gemcitabine] + CCN(CC)CCCCNc1ncc2cc(-c3cc(OC)cc(OC)c3)c(NC(=O)NC(C)(C)C)nc2n1 [PD173074] (first compound 0.0004 µM, partner dose 0.1 µM) | 95%
CC(=O)O[C@@]12CO[C@@H]1C[C@H](O)[C@@]1(C)C(=O)[C@H](O)C3=C(C)[C@@H](OC(=O)[C@H](O)[C@@H](NC(=O)OC(C)(C)C)c4ccccc4)C[C@@](O)([C@@H](OC(=O)c4ccccc4)[C@H]21)C3(C)C [Docetaxel] + CCCCCCCCCCCC1=C(O)C(=O)C=C(O)C1=O [Embelin] (first compound 0.0001 µM, partner dose 1.2 µM) | 9.91%
Nc1nc(F)nc2c1ncn2[C@@H]1O[C@H](CO)[C@@H](O)[C@@H]1O [fludarabine] + O=c1cc(-c2cccc3c2Sc2ccccc2S3)oc(N2CCOCC2)c1 [KU55933] (first compound 0.2 µM, partner dose 1 µM) | 89%
CO[C@H]1C[C@@H]2CC[C@@H](C)[C@@](O)(O2)C(=O)C(=O)N2CCCC[C@H]2C(=O)O[C@H]([C@H](C)C[C@@H]2CC[C@@H](OCCO)[C@H](OC)C2)CC(=O)[C@H](C)/C=C(\C)[C@@H](O)[C@@H](OC)C(=O)[C@H](C)C[C@H](C)/C=C/C=C/C=C/1C [everolimus] + O=c1cc(-c2cccc3c2Sc2ccccc2S3)oc(N2CCOCC2)c1 [KU55933] (first compound 0.02 µM, partner dose 1 µM) | 85.1%
CC(=O)O[C@@]12CO[C@@H]1C[C@H](O)[C@@]1(C)C(=O)[C@H](O)C3=C(C)[C@@H](OC(=O)[C@H](O)[C@@H](NC(=O)OC(C)(C)C)c4ccccc4)C[C@@](O)([C@@H](OC(=O)c4ccccc4)[C@H]21)C3(C)C [Docetaxel] + COc1ccc2c(c1)CCC1C2CCC2(C)C(NCCCCCCN3C(=O)C=CC3=O)CCC12 [U73122] (first compound 0.0001 µM, partner dose 0.4 µM) | 6.68%
CC(=O)O[C@@]12CO[C@@H]1C[C@H](O)[C@@]1(C)C(=O)[C@H](O)C3=C(C)[C@@H](OC(=O)[C@H](O)[C@@H](NC(=O)OC(C)(C)C)c4ccccc4)C[C@@](O)([C@@H](OC(=O)c4ccccc4)[C@H]21)C3(C)C [Docetaxel] + O=C(O)C(=O)Nc1sc2c(c1C(=O)O)CCNC2 [TCS401] (first compound 0.0001 µM, partner dose 1.66667 µM) | 12.7%
CO[C@H]1C[C@@H]2CC[C@@H](C)[C@@](O)(O2)C(=O)C(=O)N2CCCC[C@H]2C(=O)O[C@H]([C@H](C)C[C@@H]2CC[C@@H](OCCO)[C@H](OC)C2)CC(=O)[C@H](C)/C=C(\C)[C@@H](O)[C@@H](OC)C(=O)[C@H](C)C[C@H](C)/C=C/C=C/C=C/1C [everolimus] + c1cc(-c2cnn3cc(-c4ccc(OCCN5CCCCC5)cc4)cnc23)ccn1 [Dorsomorphin] (first compound 0.02 µM, partner dose 0.4 µM) | 79.1%
CC(=O)c1c(C)c2cnc(Nc3ccc(N4CCNCC4)cn3)nc2n(C2CCCC2)c1=O [palbociclib] + Oc1cc(-c2nc(-c3ccccc3)[nH]c2-c2ccncc2)ccc1Cl [L779450] (first compound 0.04 µM, partner dose 0.2 µM) | 102%
Nc1ncn([C@H]2C[C@H](O)[C@@H](CO)O2)c(=O)n1 [decitabine] + O=C(Nc1ccccc1)c1cc([N+](=O)[O-])ccc1Cl [GW9662] (first compound 0.1 µM, partner dose 2 µM) | 82.9%
Nc1nc(F)nc2c1ncn2[C@@H]1O[C@H](CO)[C@@H](O)[C@@H]1O [fludarabine] + c1cc(-c2cnn3cc(-c4ccc(OCCN5CCCCC5)cc4)cnc23)ccn1 [Dorsomorphin] (first compound 0.2 µM, partner dose 0.4 µM) | 93.3%
CO[C@H]1C[C@@H]2CC[C@@H](C)[C@@](O)(O2)C(=O)C(=O)N2CCCC[C@H]2C(=O)O[C@H]([C@H](C)C[C@@H]2CC[C@@H](OCCO)[C@H](OC)C2)CC(=O)[C@H](C)/C=C(\C)[C@@H](O)[C@@H](OC)C(=O)[C@H](C)C[C@H](C)/C=C/C=C/C=C/1C [everolimus] + O=C(Nc1ccccc1)c1cc([N+](=O)[O-])ccc1Cl [GW9662] (first compound 0.02 µM, partner dose 2 µM) | 78.1%
CC(=O)c1c(C)c2cnc(Nc3ccc(N4CCNCC4)cn3)nc2n(C2CCCC2)c1=O [palbociclib] + COC(=O)c1sccc1S(=O)(=O)Nc1ccc(Nc2ccccc2)cc1OC [GSK0660] (first compound 0.04 µM, partner dose 1 µM) | 110%
CO[C@H]1C[C@@H]2CC[C@@H](C)[C@@](O)(O2)C(=O)C(=O)N2CCCC[C@H]2C(=O)O[C@H]([C@H](C)C[C@@H]2CC[C@@H](OCCO)[C@H](OC)C2)CC(=O)[C@H](C)/C=C(\C)[C@@H](O)[C@@H](OC)C(=O)[C@H](C)C[C@H](C)/C=C/C=C/C=C/1C [everolimus] + Cn1cc(/C=C2\C(=O)Nc3cccnc32)c2ccccc21 [GW441756] (first compound 0.02 µM, partner dose 0.4 µM) | 77.5%
CO[C@H]1C[C@@H]2CC[C@@H](C)[C@@](O)(O2)C(=O)C(=O)N2CCCC[C@H]2C(=O)O[C@H]([C@H](C)C[C@@H]2CC[C@@H](OCCO)[C@H](OC)C2)CC(=O)[C@H](C)/C=C(\C)[C@@H](O)[C@@H](OC)C(=O)[C@H](C)C[C@H](C)/C=C/C=C/C=C/1C [everolimus] + CCN(CC)CCCCNc1ncc2cc(-c3cc(OC)cc(OC)c3)c(NC(=O)NC(C)(C)C)nc2n1 [PD173074] (first compound 0.02 µM, partner dose 0.1 µM) | 73.1%
Nc1ccn([C@@H]2O[C@H](CO)[C@@H](O)C2(F)F)c(=O)n1 [gemcitabine] + O=C1NC(=O)/C(=C/c2ccc(-c3ccc(F)cc3O)o2)S1 [AS252424] (first compound 0.0004 µM, partner dose 1 µM) | 96.1%
Nc1ccn([C@@H]2O[C@H](CO)[C@@H](O)C2(F)F)c(=O)n1 [gemcitabine] + Oc1nc(-c2ccc(C(F)(F)F)cc2)nc2c1CSCC2 [XAV939] (first compound 0.0004 µM, partner dose 2 µM) | 88.4%
Nc1ccn([C@@H]2O[C@H](CO)[C@@H](O)C2(F)F)c(=O)n1 [gemcitabine] + O=S(=O)(c1ccccc1)N(CC(F)(F)F)c1ccc(C(O)(C(F)(F)F)C(F)(F)F)cc1 [T0901317] (first compound 0.0004 µM, partner dose 1.4 µM) | 88.3%
Nc1nc(F)nc2c1ncn2[C@@H]1O[C@H](CO)[C@@H](O)[C@@H]1O [fludarabine] + CCc1ccc(CCOc2ccc(CC3SC(=O)NC3=O)cc2)nc1 [pioglitazone] (first compound 0.2 µM, partner dose 2 µM) | 98.4%
CC(=O)c1c(C)c2cnc(Nc3ccc(N4CCNCC4)cn3)nc2n(C2CCCC2)c1=O [palbociclib] + Cc1cc([N+](=O)[O-])ccc1NS(=O)(=O)c1cc(Cl)ccc1Cl [FH535] (first compound 0.04 µM, partner dose 1 µM) | 89%
CC(=O)O[C@@]12CO[C@@H]1C[C@H](O)[C@@]1(C)C(=O)[C@H](O)C3=C(C)[C@@H](OC(=O)[C@H](O)[C@@H](NC(=O)OC(C)(C)C)c4ccccc4)C[C@@](O)([C@@H](OC(=O)c4ccccc4)[C@H]21)C3(C)C [Docetaxel] + N#Cc1c(O)c2c(-c3ccc(-c4ccccc4O)cc3)csc2[nH]c1=O [A769662] (first compound 0.0001 µM, partner dose 2 µM) | 10.3%
Nc1ncn([C@H]2C[C@H](O)[C@@H](CO)O2)c(=O)n1 [decitabine] + COC(=O)c1sccc1S(=O)(=O)Nc1ccc(Nc2ccccc2)cc1OC [GSK0660] (first compound 0.1 µM, partner dose 1 µM) | 81.1%
CO[C@H]1C[C@@H]2CC[C@@H](C)[C@@](O)(O2)C(=O)C(=O)N2CCCC[C@H]2C(=O)O[C@H]([C@H](C)C[C@@H]2CC[C@@H](OCCO)[C@H](OC)C2)CC(=O)[C@H](C)/C=C(\C)[C@@H](O)[C@@H](OC)C(=O)[C@H](C)C[C@H](C)/C=C/C=C/C=C/1C [everolimus] + COc1ccc2c(c1)CCC1C2CCC2(C)C(NCCCCCCN3C(=O)C=CC3=O)CCC12 [U73122] (first compound 0.02 µM, partner dose 0.4 µM) | 66.7%
